Test results reported in the RNAGym collection of RNA variant scans (doi:10.7554/elife.90254).
The source gives no read counts; variants with many changes may rest on few reads.

B1: LINE1-full (parent)
chain: UACGUAGGUGGUUUUCCCCUGAUAGUGCUAAGGGGGCCUGGAAGUUUGGACUGGGCAGAGCUCAACACAGCGUGGCAAAGUGGCUGUGGCUAGACUGCCUCUCUGGAUUCCUCGUCACUCAGCAGGGCAUCUCUGAGAGAAAUGCC

Variants of: B1
Assay: self-cleavage, relative activity (ratio to wild type); higher = more cleavage; in vitro, sequencing; the parent is a self-cleaving ribozyme
With U9A U26C A78G U119C the self-cleavage was 2.
G7A U13C U62C A77G gave a self-cleavage of 0.13.
With U9A U47C G126U the self-cleavage was 0.82.
Variant U9A U12G U39C U45C A59G A67U G83A has a self-cleavage of 0.52.
For U9A C19A U39A U115A A129U, the self-cleavage was 1.2.
With U9A A31U U134C the self-cleavage was 1.02.
U9A U14C U132C showed a self-cleavage of 0.34.
With A6G U14C U85C the self-cleavage was 1.02.
U9A G25A A92G U115G showed a self-cleavage of 0.
U9A A78G A107G U143C gave a self-cleavage of 0.
Variant G7C U9A U96C U102C has a self-cleavage of 0.42.
Work on U9A A64U A67G yielded a self-cleavage of 0.12.
Work on G7U U104C A107G A124C yielded a self-cleavage of 1.53.
A6U U13C A67G G93A gave a self-cleavage of 0.
For U9A A107G U143C, the self-cleavage was 1.19.
With U9A U12C C66U G126A the self-cleavage was 0.04.
In the case of G8C G53A U62C, the self-cleavage is reported as 0.11.
Variant A6U U39A U108C has a self-cleavage of 1.41.
U9A G35A A141G A142G showed a self-cleavage of 0.78.
In the case of U9A C16A U119C, the self-cleavage is reported as 0.95.
For A6G U26A A79G A121G, the self-cleavage was 0.
Work on G7A U96C G97U yielded a self-cleavage of 0.08.
Work on G8A U87C A136G yielded a self-cleavage of 0.28.
With U9A C19U U130A U143A the self-cleavage was 0.83.
In the case of U9A U12G U100C, the self-cleavage is reported as 1.08.
G8A A59U A121U gave a self-cleavage of 0.85.
A6U U134A A142U gave a self-cleavage of 0.72.
Work on A6U U12C A64U U73C U100C yielded a self-cleavage of 0.81.
Variant G8C U12G A31G U47A U85A U115C has a self-cleavage of 0.29.
Variant G8A A42G U46A U119C A142G has a self-cleavage of 1.33.
In the case of A6G U23C A50G U132C, the self-cleavage is reported as 1.67.
Work on G8U U20A U26C A43G A79G A142G C145A yielded a self-cleavage of 2.12.
In the case of G7U A22G A30G U112C A141G, the self-cleavage is reported as 0.86.
With A6G U104A A121G the self-cleavage was 1.33.
G7A U45C A77G G105A A142G gave a self-cleavage of 2.17.
In the case of A6G U115A A136G, the self-cleavage is reported as 1.8.
For A6G U15C A121G, the self-cleavage was 2.02.
Work on A6G U20G U47C yielded a self-cleavage of 0.
G8C U112C A138C showed a self-cleavage of 1.99.
In the case of G8U A43G A138G, the self-cleavage is reported as 1.23.
A6G U52C G58A showed a self-cleavage of 0.09.
With U9A G44A A138G the self-cleavage was 0.33.
Work on A6G U26A A92U yielded a self-cleavage of 0.69.
Work on A6G U14C U26A U96A yielded a self-cleavage of 0.08.
For U9A G21A C28G G83U C123U A142G, the self-cleavage was 0.72.
For G8A C68U U102C C123U U143A, the self-cleavage was 0.19.
Work on G7U U102C U130C yielded a self-cleavage of 0.48.
Work on G7U U9C A124G yielded a self-cleavage of 1.31.
For A6G U73C U87C, the self-cleavage was 2.51.
G7A U13C A50G A57U G88C U115C U119A gave a self-cleavage of 0.
With G8U U46C A92U A124G the self-cleavage was 1.69.
Work on U9A A31U A42U C51U A57G U81C yielded a self-cleavage of 0.67.
Variant U9A U12C G36A G127A A138U has a self-cleavage of 1.27.
Work on A6U A64U U96C U130C A138G yielded a self-cleavage of 0.18.
In the case of G8A U26A A31U U132A, the self-cleavage is reported as 0.92.
Variant A6U C66U U85C U100C U112C has a self-cleavage of 0.04.
In the case of A6G U14C G105A A107G A117G, the self-cleavage is reported as 0.61.
Work on U9A U15C A24G A64U G88U U96C yielded a self-cleavage of 0.18.
With G7U U47C C61U U81C A121U A136G the self-cleavage was 0.04.
A6U G33A U73C showed a self-cleavage of 0.91.
U9A A69G U132C gave a self-cleavage of 1.08.
A6U U23A A31G A79G showed a self-cleavage of 1.31.
In the case of G7A A59G A64C, the self-cleavage is reported as 0.03.
U9A U46A C51U C76U gave a self-cleavage of 0.64.
With U9A G55A C103A A117G U134C A138G the self-cleavage was 0.22.
Work on G8A U14C U85A yielded a self-cleavage of 0.17.
A6U A50G U143C showed a self-cleavage of 0.73.
Work on A6U A65G A92G U100A A138U yielded a self-cleavage of 0.27.
In the case of G7A A22G A64U, the self-cleavage is reported as 0.53.
A6G U39C G97A G127C gave a self-cleavage of 0.23.
Variant U9A A22G U29A G70U has a self-cleavage of 0.22.
With G8A U12C U14C A50U the self-cleavage was 0.63.
Work on A6U A78U U104C yielded a self-cleavage of 2.36.
In the case of G7A A64U U81C U102C, the self-cleavage is reported as 0.33.
G7U A77G U104A showed a self-cleavage of 1.62.
Variant G7A U12C A79G has a self-cleavage of 0.86.
For U9A U23A A30G, the self-cleavage was 1.48.
With A6U U45C G72U U96G the self-cleavage was 0.
For A6G U46C A69G G135A, the self-cleavage was 0.07.
In the case of U9A U26A U96A A124G A142G, the self-cleavage is reported as 0.06.
With A6U A42G U62C A64U the self-cleavage was 0.15.
Work on A6G U15A U62C A79G U85C yielded a self-cleavage of 0.
G8A G135A A138G showed a self-cleavage of 1.67.
U9A A31G U119A showed a self-cleavage of 0.6.
With G7A U130C A142G the self-cleavage was 0.
For A6U G34A U85C, the self-cleavage was 0.17.
G8U U20A A31U U62A A65G U81A A107G showed a self-cleavage of 0.17.
In the case of U9A G72A A140G, the self-cleavage is reported as 0.77.
U9A C111A A140U showed a self-cleavage of 1.27.
A6U A67G U132C A141U gave a self-cleavage of 0.69.
A6U U45C A59U gave a self-cleavage of 0.21.
Work on A6G U39C A43G U62C yielded a self-cleavage of 0.
In the case of A6U U46C U91C U112C A138G, the self-cleavage is reported as 0.
G7A A67U A117U gave a self-cleavage of 0.09.
With U9A A57G A121G the self-cleavage was 0.
In the case of A6G U23C U134G U143C, the self-cleavage is reported as 0.
A6G U14C U52A A142G showed a self-cleavage of 0.98.
For A6G U12G U85C, the self-cleavage was 0.
With G7U C123A A136C the self-cleavage was 1.7.
In the case of G8A U15C C51A U96A, the self-cleavage is reported as 0.15.
U9A A30U G32A C116U gave a self-cleavage of 1.07.
G7C U62A U102C U109A showed a self-cleavage of 1.84.
In the case of G7A U52A U132C, the self-cleavage is reported as 1.31.
In the case of A6U U39C G80U, the self-cleavage is reported as 1.53.
In the case of U9A U46G A59G A79U, the self-cleavage is reported as 0.07.
For G7U U62C U73C, the self-cleavage was 0.3.
With U9A A57G U109C U130C the self-cleavage was 1.15.
Variant G7U U46C U119C has a self-cleavage of 1.34.
With U9A U47A U100C A141G the self-cleavage was 1.4.
With A6G U62C A79G U85C the self-cleavage was 0.
For G8A A69G U115A A129G, the self-cleavage was 0.33.
Work on G7A U23C U112C yielded a self-cleavage of 1.46.
G8A U26C A42G U130A gave a self-cleavage of 0.9.
In the case of U9A A79G U109C, the self-cleavage is reported as 0.9.
U9A U39C U85C U119A showed a self-cleavage of 0.
With U9A U15C U62C G89A A136G A138G the self-cleavage was 0.
In the case of A6U U39C C68U A92U, the self-cleavage is reported as 0.12.
For A6G U115A U134C, the self-cleavage was 0.
Variant U9A G55A A92G U100A has a self-cleavage of 0.09.
A6G U62C C131U gave a self-cleavage of 0.
A6U G53A A79G A117U gave a self-cleavage of 1.68.
Variant U9A A43G U45C U47A G48A U52A A94U A107G A136G has a self-cleavage of 0.
G8C U73A A78G A141G showed a self-cleavage of 0.34.
In the case of U9A U12A A69U A121U, the self-cleavage is reported as 0.14.
U9A A43U U130A gave a self-cleavage of 1.17.
Work on U9A A64U U96C A141G yielded a self-cleavage of 0.07.
U9A C16U A67U gave a self-cleavage of 0.17.
Work on G7C U13A A64U U119A yielded a self-cleavage of 0.39.
Work on G8U U20C U73C U100C A140G yielded a self-cleavage of 2.63.
Work on A6U U29C A141G yielded a self-cleavage of 0.97.
Variant G8A U47C U130C has a self-cleavage of 1.35.
For U9A A57G U62C U104C, the self-cleavage was 0.92.
For U9A U13C A42G A78U A124U A142U, the self-cleavage was 1.19.
Work on G7A G40A U96C A117G U119C U143C yielded a self-cleavage of 0.
G7U A69U C118A showed a self-cleavage of 0.04.
A6U U20A A141G showed a self-cleavage of 1.71.
Variant U9A A22G A24U A57G has a self-cleavage of 0.27.
For U9A C116U U130A U132C, the self-cleavage was 0.74.
Variant U9A A77U U115A C123G has a self-cleavage of 2.14.
With A6G U87A U96C the self-cleavage was 0.12.
A6G U13C U115A U134G showed a self-cleavage of 0.7.
A6U U39C C110A A142G gave a self-cleavage of 1.21.
G7U G11U U87C showed a self-cleavage of 0.09.
G7U A31G U45A showed a self-cleavage of 1.28.
In the case of G7C U45C A141G, the self-cleavage is reported as 1.74.
In the case of U9A C19A A107U, the self-cleavage is reported as 0.88.
U9A U29C U81A gave a self-cleavage of 1.02.
For U9A G125A A142G, the self-cleavage was 1.4.
Work on A6U G36A C61A U115C yielded a self-cleavage of 0.07.
Variant U9A U46C U62C U73A has a self-cleavage of 0.11.
In the case of A6U A129U U143C, the self-cleavage is reported as 0.82.
G8A U15A G33A U45C U46C U119C showed a self-cleavage of 1.11.
Variant G7A U23A G82A has a self-cleavage of 2.1.
Variant G7A C19U A43U has a self-cleavage of 0.59.
With U9A A42G U109G the self-cleavage was 0.6.
In the case of G7A A50G U112C, the self-cleavage is reported as 0.32.
Work on A6G U26C U62C yielded a self-cleavage of 0.
Work on A6G U15A G36C A121U C131U yielded a self-cleavage of 1.15.
With A6G U102C A107G the self-cleavage was 0.
G7U U15C U85A showed a self-cleavage of 0.16.
With U9A U23C U115A the self-cleavage was 1.19.
In the case of U9A A65G A142G, the self-cleavage is reported as 0.
Work on A6U G10A G35C yielded a self-cleavage of 2.08.
Variant U9A U12G A79G has a self-cleavage of 0.52.
In the case of U9A G11A A42G, the self-cleavage is reported as 2.35.
In the case of G7U U26C A30U U134C A136G, the self-cleavage is reported as 1.36.
Work on A6G U45C U143G yielded a self-cleavage of 0.61.
